From paper PMC3479024 come the findings set out here.

Amino acid sequences for entries named in this document (tags omitted). A change or cut given only in a name is not applied to a line headed by its entry. Residues count along the entry.
UniProt Q07817: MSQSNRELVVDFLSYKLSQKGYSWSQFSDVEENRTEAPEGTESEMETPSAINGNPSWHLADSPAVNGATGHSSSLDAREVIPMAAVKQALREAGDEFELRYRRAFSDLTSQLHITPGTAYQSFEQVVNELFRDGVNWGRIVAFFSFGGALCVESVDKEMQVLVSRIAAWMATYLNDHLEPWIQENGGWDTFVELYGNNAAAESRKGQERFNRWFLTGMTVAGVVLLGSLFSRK
EGFP-Bcl-XL(1–195): residues 1-195 of Q07817
GST-Bcl-XL(86–195): residues 86-195 of Q07817
GST-Bcl-XL(196–233): residues 196-233 of Q07817
UniProt Q99497: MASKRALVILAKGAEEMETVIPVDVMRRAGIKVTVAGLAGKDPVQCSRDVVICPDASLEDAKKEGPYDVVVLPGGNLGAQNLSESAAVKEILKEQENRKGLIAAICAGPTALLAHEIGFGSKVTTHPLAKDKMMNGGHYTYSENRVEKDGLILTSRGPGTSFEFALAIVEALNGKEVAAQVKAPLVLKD

Assay [1] addresses Bcl-XL (endogenous, H1299) (human (endogenous in H1299)) (UniProt Q07817). Description: co-IP; lysates of H1299 cells transfected with Flag-DJ-1 or Flag-DJ-1(L166P); precipitated with anti-Bcl-XL antibody or normal mouse serum on protein G Sepharose; lysis buffer 50 mM Tris-HCl pH 7.5, 150 mM NaCl, 1% NP40, 0.5% deoxycholate.
Assay [2] has as its target EGFP-Bcl-XL (human) (UniProt Q07817). Description: co-IP; lysates of HEK293 cells co-transfected with EGFP or EGFP-Bcl-XL and Flag-DJ-1, Flag-DJ-1(L166P) or Flag-DJ-1(M26I); precipitated with anti-GFP antibodies.
Assay [3] shares this target. Description: co-IP; lysates of H1299 cells transiently transfected with EGFP, EGFP-Bcl-XL or its fragments and Flag-DJ-1(L166P); with or without 80 mJ/cm^2 UVB irradiation; precipitated with anti-GFP antibodies.
Assay [4] has as its target EGFP-Bcl-XL(196–233) (human) (UniProt Q07817). The assay is described as above.
The target in assay [5] is EGFP-Bcl-XL(1–195) (human) (UniProt Q07817). The assay is described as above.
The target is the same in assay [6]. Description: co-IP; H1299 cells stably expressing EGFP-Bcl-XL or EGFP-Bcl-XL(1–195), transfected with various amounts of Flag-DJ-1(L166P), 80 mJ/cm^2 UVB irradiation; lysates precipitated with anti-GFP antibodies.
Assay [7] has as its target GST-Bcl-XL(86–195) (human) (UniProt Q07817). Description: pull-down; GST, GST-Bcl-XL, GST-Bcl-XL(1–85), (86–195) or (196–233) on glutathione-agarose beads; supernatant of E. coli crude extract with His-DJ-1 or His-DJ-1(L166P); immunoblot; only the target purified. For orientation: Immunoblotting shows a protein as a band on a membrane.
Assay [8] concerns the target GST-Bcl-XL(196–233) (human) (UniProt Q07817). Described as above.

Results are given in words; binding and its absence hold for the method and conditions named. Binding seen in cells or lysates may run through a third protein. Some binding calls cover weakened binding; strength is not graded here.

Regarding Flag-DJ-1 (from UniProt Q99497 1-189), the binding result in assay [1] is reported as “binds”.
Take “Flag-DJ-1(L166P) (from UniProt Q99497 1-189)”: the binding result is on record as “binds” with EGFP-Bcl-XL (human) [2]; “binds” in the assay with EGFP-Bcl-XL (human) [3]; “binds” in assay [4]; “no binding” in assay [5]; “no binding” in assay [6]; “binds” in assay [1].
Turning to “Flag-DJ-1(M26I) (from UniProt Q99497 1-189)”, the binding entry with EGFP-Bcl-XL (human) [2] is recorded as “binds”.
Turning to His-DJ-1 (from UniProt Q99497 1-189), the binding entry in assay [7] was “binds”.
Turning to “His-DJ-1(L166P) (from UniProt Q99497 1-189)”, the binding result in assay [8] is listed as “binds”.
